From paper PMC11477271
Results are given in words; binding and its absence hold for the method and conditions named. Binding seen in cells or lysates may run through a third protein. Some entries that bind do so weakly or less than the wild type.

By UniProt entry, the sequences of proteins in these tests, tags left out. Where a name states a change or a piece, a line headed by the entry shows the natural chain unless it says otherwise. Chains listed by the source or under a name are the forms on record and can include a tag or linker.
UniProt Q8NFD2: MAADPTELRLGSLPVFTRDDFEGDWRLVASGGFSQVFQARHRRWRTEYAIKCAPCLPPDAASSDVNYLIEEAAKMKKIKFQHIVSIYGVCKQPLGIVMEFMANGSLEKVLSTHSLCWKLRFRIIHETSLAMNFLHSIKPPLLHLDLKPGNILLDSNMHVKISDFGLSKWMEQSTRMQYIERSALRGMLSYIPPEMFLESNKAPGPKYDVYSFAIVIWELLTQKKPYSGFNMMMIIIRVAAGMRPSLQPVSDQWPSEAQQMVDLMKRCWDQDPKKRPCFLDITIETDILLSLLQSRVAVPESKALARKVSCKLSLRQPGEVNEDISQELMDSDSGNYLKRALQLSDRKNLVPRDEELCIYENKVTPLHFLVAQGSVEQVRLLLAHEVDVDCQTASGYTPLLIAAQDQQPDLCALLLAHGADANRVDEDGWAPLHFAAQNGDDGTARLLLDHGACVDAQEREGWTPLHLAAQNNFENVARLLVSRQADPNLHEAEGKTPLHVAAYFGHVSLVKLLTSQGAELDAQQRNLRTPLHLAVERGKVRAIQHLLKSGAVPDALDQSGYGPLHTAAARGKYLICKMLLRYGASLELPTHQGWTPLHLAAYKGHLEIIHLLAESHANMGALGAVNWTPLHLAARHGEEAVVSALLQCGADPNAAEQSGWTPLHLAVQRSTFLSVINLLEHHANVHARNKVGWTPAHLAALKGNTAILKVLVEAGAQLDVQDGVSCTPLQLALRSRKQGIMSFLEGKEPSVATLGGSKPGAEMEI
full-length ANKK1^Thr239 (fl-ANKK1^Thr239), transfected in HEK293T (Q8NFD2, form named): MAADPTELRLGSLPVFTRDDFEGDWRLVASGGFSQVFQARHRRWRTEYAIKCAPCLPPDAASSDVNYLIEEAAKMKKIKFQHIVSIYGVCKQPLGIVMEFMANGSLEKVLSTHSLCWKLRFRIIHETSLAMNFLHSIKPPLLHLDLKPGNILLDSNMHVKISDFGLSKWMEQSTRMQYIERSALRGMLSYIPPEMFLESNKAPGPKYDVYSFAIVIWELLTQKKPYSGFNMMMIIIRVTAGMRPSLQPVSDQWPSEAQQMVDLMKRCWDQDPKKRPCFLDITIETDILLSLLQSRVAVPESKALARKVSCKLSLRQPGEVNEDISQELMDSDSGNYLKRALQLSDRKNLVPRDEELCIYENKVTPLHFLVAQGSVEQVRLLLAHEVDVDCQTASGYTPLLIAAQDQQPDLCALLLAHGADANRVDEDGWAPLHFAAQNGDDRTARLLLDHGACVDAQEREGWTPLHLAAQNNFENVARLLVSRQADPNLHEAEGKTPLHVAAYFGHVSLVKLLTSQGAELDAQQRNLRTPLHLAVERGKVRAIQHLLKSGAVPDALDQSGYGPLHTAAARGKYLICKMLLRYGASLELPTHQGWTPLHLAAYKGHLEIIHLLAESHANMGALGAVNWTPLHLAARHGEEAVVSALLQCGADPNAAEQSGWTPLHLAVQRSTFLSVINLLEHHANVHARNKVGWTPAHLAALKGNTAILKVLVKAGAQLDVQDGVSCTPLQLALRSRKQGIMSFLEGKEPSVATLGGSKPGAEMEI
UniProt Q8IW93: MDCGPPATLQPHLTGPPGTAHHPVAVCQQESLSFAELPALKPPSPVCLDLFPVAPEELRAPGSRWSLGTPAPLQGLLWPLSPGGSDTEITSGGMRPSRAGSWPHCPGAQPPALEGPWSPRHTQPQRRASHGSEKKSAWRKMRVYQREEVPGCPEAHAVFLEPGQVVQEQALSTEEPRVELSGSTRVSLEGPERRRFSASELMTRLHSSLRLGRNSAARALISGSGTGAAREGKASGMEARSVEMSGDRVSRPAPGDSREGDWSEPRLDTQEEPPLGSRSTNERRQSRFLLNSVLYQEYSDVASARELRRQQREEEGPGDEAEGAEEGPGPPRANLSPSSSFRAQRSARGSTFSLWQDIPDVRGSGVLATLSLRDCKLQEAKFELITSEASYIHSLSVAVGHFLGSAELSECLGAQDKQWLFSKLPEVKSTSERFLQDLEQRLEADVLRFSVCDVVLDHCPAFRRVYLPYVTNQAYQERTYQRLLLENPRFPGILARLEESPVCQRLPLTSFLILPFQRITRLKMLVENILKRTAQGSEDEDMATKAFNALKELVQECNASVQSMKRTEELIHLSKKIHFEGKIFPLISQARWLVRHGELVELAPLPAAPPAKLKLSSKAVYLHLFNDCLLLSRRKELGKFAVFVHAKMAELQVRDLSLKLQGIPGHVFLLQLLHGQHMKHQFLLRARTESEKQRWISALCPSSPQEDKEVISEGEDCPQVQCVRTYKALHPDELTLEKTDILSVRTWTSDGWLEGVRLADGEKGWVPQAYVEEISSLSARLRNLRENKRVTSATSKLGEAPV
UniProt P60953: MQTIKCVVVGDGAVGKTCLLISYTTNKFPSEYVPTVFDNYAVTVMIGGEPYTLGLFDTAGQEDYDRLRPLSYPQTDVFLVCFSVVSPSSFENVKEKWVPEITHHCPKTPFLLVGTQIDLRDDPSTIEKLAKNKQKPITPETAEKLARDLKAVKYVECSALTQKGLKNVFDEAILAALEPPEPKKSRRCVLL
UniProt P61586: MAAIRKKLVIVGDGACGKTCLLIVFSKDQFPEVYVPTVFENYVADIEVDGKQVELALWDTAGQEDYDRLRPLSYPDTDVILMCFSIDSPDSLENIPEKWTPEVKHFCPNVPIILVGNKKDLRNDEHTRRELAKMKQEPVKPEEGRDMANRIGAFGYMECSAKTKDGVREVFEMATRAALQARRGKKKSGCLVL

B1: FARP1 construct, transfected in HEK293T (protein, UniProt Q9Y4F1 1-1045)
chain: MGEIEQRPTPGSRLGAPENSGISTLERGQKPPPTPSGKLVSIKIQMLDDTQEAFEVPQRAPGKVLLDAVCNHLNLVEGDYFGLEFPDHKKITVWLDLLKPIVKQIRRPKHVVVKFVVKFFPPDHTQLQEELTRYLFALQVKQDLAQGRLTCNDTSAALLISHIVQSEIGDFDEALDREHLAKNKYIPQQDALEDKIVEFHHNHIGQTPAESDFQLLEIARRLEMYGIRLHPAKDREGTKINLAVANTGILVFQGFTKINAFNWAKVRKLSFKRKRFLIKLRPDANSAYQDTLEFLMASRDFCKSFWKICVEHHAFFRLFEEPKPKPKPVLFSRGSSFRFSGRTQKQVLDYVKEGGHKKVQFERKHSKIHSIRSLASQPTELNSEVLEQSQQSTSLTFGEGAESPGGQSCRRGKEPKVSAGEPGSHPSPAPRRSPAGNKQADGAASAPTEEEEEVVKDRTQQSKPQPPQPSTGSLTGSPHLSELSVNSQGGVAPANVTLSPNLSPDTKQASPLISPLLNDQACPRTDDEDEGRRKRFPTDKAYFIAKEVSTTERTYLKDLEVITSWFQSTVSKEDAMPEALKSLIFPNFEPLHKFHTNFLKEIEQRLALWEGRSNAQIRDYQRIGDVMLKNIQGMKHLAAHLWKHSEALEALENGIKSSRRLENFCRDFELQKVCYLPLNTFLLRPLHRLMHYKQVLERLCKHHPPSHADFRDCRAALAEITEMVAQLHGTMIKMENFQKLHELKKDLIGIDNLVVPGREFIRLGSLSKLSGKGLQQRMFFLFNDVLLYTSRGLTASNQFKVHGQLPLYGMTIEESEDEWGVPHCLTLRGQRQSIIVAASSRSEMEKWVEDIQMAIDLAEKSSSPAPEFLASSPPDNKSPDEATAADQESEDDLSASRTSLERQAPHRGNTMVHVCWHRNTSVSMVDFSIAVENQLSGNLLRKFKNSNGWQKLWVVFTNFCLFFYKSHQDNHPLASLPLLGYSLTIPSESENIQKDYVFKLHFKSHVYYFRAESEYTFERWMEVIRSATSSASRPHVLSHKESLVY

Experiments:
[1] = target: full-length ANKK1^Thr239 in fusion with V5, stably expressed in SH-SY5Y (scfl-ANKK1^Thr239) (human) (UniProt Q8NFD2); assay: co-IP; SH-SY5Y lines stably expressing fl-ANKK1^Thr239 after differentiation (Figure S9B,C right)
[2] = target: full-length ANKK1^Thr239 in fusion with V5, stably expressed in SH-SY5Y (scfl-ANKK1^Thr239) (human) (UniProt Q8NFD2); assay: proximity ligation; PLA in SH-SY5Y lines with fl-ANKK1^Thr239, undifferentiated and differentiated (Figure S9D–F)
[3] = target: full-length ANKK1^Thr239 in fusion with V5, stably expressed in SH-SY5Y (scfl-ANKK1^Thr239) (human) (UniProt Q8NFD2); assay: co-IP; undifferentiated SH-SY5Y lines stably expressing fl-ANKK1^Thr239 or fl-ANKK1^Arg51 (Figure S9A, B left, C left)
[4] = target: RhoGEF19 (WGEF), endogenous in SH-SY5Y cells (human (endogenous in SH-SY5Y)) (UniProt Q8IW93); assay: proximity ligation; PLA of endogenous proteins in shMOCK, shANKK1 and shFARP1 knockdown SH-SY5Y lines, undifferentiated and 48 h serum-starved (0% FBS) or RA-treated
[5] = target: full-length ANKK1^Thr239 in fusion with V5, stably expressed in SH-SY5Y (scfl-ANKK1^Thr239) (human) (UniProt Q8NFD2); assay: co-IP; scMOCK and scfl-ANKK1^Thr239 SH-SY5Y cell lines during proliferation
[6] = target: full-length ANKK1^Thr239 (fl-ANKK1^Thr239), transfected in HEK293T (human) (UniProt Q8NFD2); assay: co-IP; HEK293T cells transfected with FARP1 and fl-ANKK1^Thr239 constructs

Row | Molecule | binding [1] | binding [2] | binding [3] | binding [4] | binding [5] | binding [6]
1 | Cdc42 of SH-SY5Y cells (from UniProt P60953 1-191) | no binding | no binding | no binding |  |  | 
2 | RhoA of SH-SY5Y cells (from UniProt P61586 1-193) | binds | binds | binds weakly | binds |  | 
3 | RhoGEF19 (WGEF), endogenous in SH-SY5Y cells (from UniProt Q8IW93 1-802) |  |  |  |  | binds | 
4 | B1 |  |  |  |  |  | binds
